# Reference: patent US8937048B2, “Anti-angiogenic compounds” (Covx Technologies Ireland, Limited, priority 2008, dated 2015)
# At least one compound was matched to its structure with a doubt left.
# Molecular target: T1, recombinant human VEGF165 (Homo sapiens, UniProt P15692)
# T1 sequence (P15692 27-191 isoform P15692-4): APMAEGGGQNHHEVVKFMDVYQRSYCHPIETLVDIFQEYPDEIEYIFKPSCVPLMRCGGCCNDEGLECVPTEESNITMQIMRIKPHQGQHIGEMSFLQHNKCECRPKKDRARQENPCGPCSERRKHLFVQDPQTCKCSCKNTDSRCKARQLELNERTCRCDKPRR
# Test: VEGF peptide binding assay (competition ELISA, VEGF165 binding to coated VEGFR2/Fc)
# Conditions: read-out: VEGF Binding IC50; Table 2 (E12 peptides); capped with C(O)CH3 and NH2
# Procedure: High-binding half-well 96-well plates (Costar #3690) were coated with recombinant human VEGFR2/Fc (50 ng/well) in 50 μl PBS, and incubated at 4° C. overnight. After washing the plates three times with 1× washing buffer (KPL Cat#50-65-00) and blocking with Superblock (Scytek #AAA500) at room temperature (RT) for 1 hour, VEGF-peptides of the invention were serially diluted (concentrations: 0.128-10,000 nM) in the presence of 25 ng/ml of recombinant human VEGF165 in […] Superblock, and were then added to the 96-well plates and incubated at RT for 1 hour. Peptides of the invention tested in this fashion were all capped at the amino terminus with a C(O)CH3 group and at the carboxyl terminus with a NH2 group. The plates were then washed three times with washing buffer, and a diluted (1:500) biotinylated anti-human VEGF antibody (R&D systems, Cat# BAF293) was added and incubated at RT for 2 hours. After washing the plates, streptavidin HRP conjugate (1:200 in Superblock) (R&D systems, Cat# DY998) was added to detect the bound anti-VEGF antibody, followed by addition of tetramethylbenzidine (TMB) substrate (Pierce, Cat#34021) for color development. The reaction was stopped with 2 M H2SO4. OD450 was measured using SpectraMax (Molecular Device) with a correction wavelength of 540 nm. The data were analyzed using Prism software. OD450 values were plotted as a function of the concentrations of the VEGF peptides. IC50 values, indicative of the potency of the VEGF peptides to inhibit VEGF-VEGFR2 interaction, were obtained using a sigmoid dose-response curve fit in Prism.
row,Structure (SMILES),IC50 [nM]
1,"CC[C@H](C)[C@@H]1NC(=O)[C@H](CC(=O)O)NC(=O)[C@@H](NC(=O)[C@H](CC(N)=O)NC(=O)[C@@H]2CCCN2C(=O)[C@H](CCC(=O)O)NC(=O)[C@@H](NC(C)=O)C(C)C)CSSC[C@@H](C(=O)N[C@@H](Cc2ccccc2)C(=O)N[C@@H](CCC(=O)O)C(=O)N[C@@H](CCCNC(=N)N)C(=O)N[C@@H](CC(C)C)C(=O)N[C@@H](C)C(=O)N[C@@H](CCCCN)C(N)=O)NC(=O)[C@H](CCC(=O)O)NC(=O)[C@H](Cc2c[nH]c3ccccc23)NC(=O)[C@H](CCC(=O)O)NC(=O)[C@H](Cc2c[nH]c3ccccc23)NC(=O)[C@H](CCSC)NC(=O)[C@H](C(C)C)NC(=O)[C@H](Cc2c[nH]cn2)NC1=O [Compound 108, VEPNCDIHVMWEWECFERLYAK]",362
2,"CC[C@H](C)[C@@H]1NC(=O)[C@H](CC(=O)O)NC(=O)[C@@H](NC(=O)[C@H](CC(N)=O)NC(=O)[C@@H]2CCCN2C(=O)[C@H](CCC(=O)O)NC(=O)[C@@H](NC(C)=O)C(C)C)CSSC[C@@H](C(=O)N[C@@H](Cc2ccccc2)C(=O)N[C@@H](CCC(=O)O)C(=O)N[C@@H](CCCNC(=N)N)C(=O)N[C@@H](CC(C)C)C(=O)N[C@@H](Cc2ccccc2)C(=O)N[C@@H](CCCCN)C(=O)N[C@@H](CCC(=O)O)C(=O)N[C@@H](Cc2c[nH]c3ccccc23)C(N)=O)NC(=O)[C@H](CCC(=O)O)NC(=O)[C@H](Cc2c[nH]c3ccccc23)NC(=O)[C@H](CCC(=O)O)NC(=O)[C@H](Cc2c[nH]c3ccccc23)NC(=O)[C@H](CCSC)NC(=O)[C@H](C(C)C)NC(=O)[C@H](Cc2c[nH]cn2)NC1=O [Compound 109, VEPNCDIHVMWEWECFERLYFKEW]",325
3,"CC[C@H](C)[C@@H]1NC(=O)[C@H](CC(=O)O)NC(=O)[C@@H](NC(=O)[C@H](CC(N)=O)NC(=O)[C@@H]2CCCN2C(=O)[C@H](CCC(=O)O)NC(=O)[C@@H](NC(C)=O)C(C)C)CSSC[C@@H](C(=O)N[C@@H](Cc2ccccc2)C(=O)N[C@@H](CCC(=O)O)C(=O)N[C@@H](CCCNC(=N)N)C(=O)N[C@@H](CC(C)C)C(=O)N[C@@H](Cc2ccccc2)C(=O)N[C@@H](CCCCN)C(N)=O)NC(=O)[C@H](CCC(=O)O)NC(=O)[C@H](Cc2c[nH]c3ccccc23)NC(=O)[C@H](CCC(=O)O)NC(=O)[C@H](Cc2c[nH]c3ccccc23)NC(=O)[C@H](CCSC)NC(=O)[C@H](C(C)C)NC(=O)[C@H](Cc2c[nH]cn2)NC1=O [Compound 111, VEPNCDIHVMWEWECFERLYFK]",265
4,"CC[C@H](C)[C@@H]1NC(=O)[C@H](CC(=O)O)NC(=O)[C@@H](NC(=O)[C@H](CC(N)=O)NC(=O)[C@@H]2CCCN2C(=O)[C@H](CCC(=O)O)NC(=O)[C@@H](NC(C)=O)C(C)C)CSSC[C@@H](C(=O)N[C@@H](Cc2ccccc2)C(=O)N[C@@H](CCC(=O)O)C(=O)N[C@@H](CCCNC(=N)N)C(=O)N[C@@H](CC(C)C)C(=O)N[C@@H](C)C(=O)N[C@@H](CCCCN)C(=O)N[C@@H](CCC(=O)O)C(=O)N[C@@H](Cc2ccccc2)C(N)=O)NC(=O)[C@H](CCC(=O)O)NC(=O)[C@H](Cc2c[nH]c3ccccc23)NC(=O)[C@H](CCC(=O)O)NC(=O)[C@H](Cc2c[nH]c3ccccc23)NC(=O)[C@H](CCSC)NC(=O)[C@H](C(C)C)NC(=O)[C@H](Cc2c[nH]cn2)NC1=O [Compound 112, VEPNCDIHVMWEWECFERLYAKEF]",115
5,"CC[C@H](C)[C@@H]1NC(=O)[C@H](CC(=O)O)NC(=O)[C@@H](NC(=O)[C@H](CC(N)=O)NC(=O)[C@@H]2CCCN2C(=O)[C@H](CCC(=O)O)NC(=O)[C@@H](NC(C)=O)C(C)C)CSSC[C@@H](C(=O)N[C@@H](Cc2ccccc2)C(=O)N[C@@H](CCC(=O)O)C(=O)N[C@@H](CCCNC(=N)N)C(=O)N[C@@H](CC(C)C)C(=O)N[C@@H](CO)C(=O)NCC(=O)NCC(=O)N[C@@H](Cc2ccccc2)C(N)=O)NC(=O)[C@H](CCC(=O)O)NC(=O)[C@H](Cc2c[nH]c3ccccc23)NC(=O)[C@H](CCC(=O)O)NC(=O)[C@H](Cc2c[nH]c3ccccc23)NC(=O)[C@H](CCSC)NC(=O)[C@H](C(C)C)NC(=O)[C@H](Cc2c[nH]cn2)NC1=O [Compound 114, VEPNCDIHVMWEWECFERLYSGWF]",127
6,"CC[C@H](C)[C@@H]1NC(=O)[C@H](CC(=O)O)NC(=O)[C@@H](NC(=O)[C@H](CC(N)=O)NC(=O)[C@@H]2CCCN2C(=O)[C@H](CCC(=O)O)NC(=O)[C@@H](NC(C)=O)C(C)C)CSSC[C@@H](C(=O)N[C@@H](Cc2ccccc2)C(=O)N[C@@H](CCC(=O)O)C(=O)N[C@@H](CCCNC(=N)N)C(=O)N[C@@H](CC(C)C)C(=O)N[C@@H](C)C(=O)N[C@@H](CCCCN)C(=O)N[C@@H](CCC(=O)O)C(=O)N[C@@H](C)C(N)=O)NC(=O)[C@H](CCC(=O)O)NC(=O)[C@H](Cc2c[nH]c3ccccc23)NC(=O)[C@H](CCC(=O)O)NC(=O)[C@H](Cc2c[nH]c3ccccc23)NC(=O)[C@H](CCSC)NC(=O)[C@H](C(C)C)NC(=O)[C@H](Cc2c[nH]cn2)NC1=O [Compound 115, VEPNCDIHVMWEWECFERLYAKEA]",122
7,"CC[C@H](C)[C@@H]1NC(=O)[C@H](CC(=O)O)NC(=O)[C@@H](NC(=O)[C@H](CC(N)=O)NC(=O)[C@@H]2CCCN2C(=O)[C@H](CCC(=O)O)NC(=O)[C@@H](NC(C)=O)C(C)C)CSSC[C@@H](C(=O)N[C@@H](Cc2ccccc2)C(=O)N[C@@H](CCC(=O)O)C(=O)N[C@@H](CCCNC(=N)N)C(=O)N[C@@H](CC(C)C)C(=O)N[C@@H](Cc2ccccc2)C(=O)N[C@@H](CCCCN)C(=O)N[C@@H](CCC(=O)O)C(=O)N[C@@H](CC(C)C)C(N)=O)NC(=O)[C@H](CCC(=O)O)NC(=O)[C@H](Cc2c[nH]c3ccccc23)NC(=O)[C@H](CCC(=O)O)NC(=O)[C@H](Cc2c[nH]c3ccccc23)NC(=O)[C@H](CCSC)NC(=O)[C@H](C(C)C)NC(=O)[C@H](Cc2c[nH]cn2)NC1=O [Compound 118, VEPNCDIHVMWEWECFERLYFKEL]",79

# Same assay, conditions: read-out: VEGF Binding IC50; Table 2; values in parentheses have been normalized
row,Structure (SMILES),IC50 [nM]
1,"CC[C@H](C)[C@@H]1NC(=O)[C@H](CC(=O)O)NC(=O)[C@@H](NC(=O)[C@H](CC(N)=O)NC(=O)[C@@H]2CCCN2C(=O)[C@H](CCC(=O)O)NC(=O)[C@@H](NC(C)=O)C(C)C)CSSC[C@@H](C(=O)N[C@@H](Cc2ccccc2)C(=O)N[C@@H](CCC(=O)O)C(=O)N[C@@H](CCCNC(=N)N)C(=O)N[C@@H](CC(C)C)C(=O)N[C@@H](C)C(=O)N[C@@H](CCCNC(=N)N)C(N)=O)NC(=O)[C@H](CCC(=O)O)NC(=O)[C@H](Cc2c[nH]c3ccccc23)NC(=O)[C@H](CCC(=O)O)NC(=O)[C@H](Cc2c[nH]c3ccccc23)NC(=O)[C@H](CCSC)NC(=O)[C@H](C(C)C)NC(=O)[C@H](Cc2c[nH]cn2)NC1=O [Compound 110, VEPNCDIHVMWEWECFERLYAR]",188
